From PMC3656048
These are yes or no findings as the source states them, for the method shown. In cells and extracts the contact can be indirect. Some results given as binding are weak or reduced against the parent protein; the word gives no strength.

Protein sequences, listed by entry. Tags and fused reporters are not part of them. Residues count along the entry.
UniProt P08588: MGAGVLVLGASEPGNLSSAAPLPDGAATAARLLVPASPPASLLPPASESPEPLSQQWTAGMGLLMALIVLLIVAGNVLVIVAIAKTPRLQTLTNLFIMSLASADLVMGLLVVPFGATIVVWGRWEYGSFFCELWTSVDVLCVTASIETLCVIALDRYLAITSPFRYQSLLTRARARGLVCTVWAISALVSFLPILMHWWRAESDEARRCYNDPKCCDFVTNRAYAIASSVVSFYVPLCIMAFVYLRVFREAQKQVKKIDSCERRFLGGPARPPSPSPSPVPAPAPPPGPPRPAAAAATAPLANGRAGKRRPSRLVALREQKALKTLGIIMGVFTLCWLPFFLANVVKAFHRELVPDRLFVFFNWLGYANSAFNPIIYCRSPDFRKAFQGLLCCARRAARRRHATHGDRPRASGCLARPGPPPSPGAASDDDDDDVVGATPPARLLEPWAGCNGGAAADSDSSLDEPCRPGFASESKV
UniProt P34971: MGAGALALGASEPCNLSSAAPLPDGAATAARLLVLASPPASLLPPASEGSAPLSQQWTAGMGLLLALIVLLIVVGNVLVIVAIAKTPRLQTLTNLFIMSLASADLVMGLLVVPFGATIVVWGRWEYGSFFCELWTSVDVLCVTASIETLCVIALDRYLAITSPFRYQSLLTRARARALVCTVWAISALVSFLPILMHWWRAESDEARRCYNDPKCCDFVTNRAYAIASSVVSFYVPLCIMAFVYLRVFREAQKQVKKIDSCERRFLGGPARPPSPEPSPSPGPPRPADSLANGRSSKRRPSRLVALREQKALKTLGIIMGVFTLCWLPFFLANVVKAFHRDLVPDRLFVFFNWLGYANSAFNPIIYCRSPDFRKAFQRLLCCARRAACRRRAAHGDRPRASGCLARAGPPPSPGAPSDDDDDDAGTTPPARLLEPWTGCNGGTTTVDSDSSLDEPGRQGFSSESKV
UniProt Q811D0: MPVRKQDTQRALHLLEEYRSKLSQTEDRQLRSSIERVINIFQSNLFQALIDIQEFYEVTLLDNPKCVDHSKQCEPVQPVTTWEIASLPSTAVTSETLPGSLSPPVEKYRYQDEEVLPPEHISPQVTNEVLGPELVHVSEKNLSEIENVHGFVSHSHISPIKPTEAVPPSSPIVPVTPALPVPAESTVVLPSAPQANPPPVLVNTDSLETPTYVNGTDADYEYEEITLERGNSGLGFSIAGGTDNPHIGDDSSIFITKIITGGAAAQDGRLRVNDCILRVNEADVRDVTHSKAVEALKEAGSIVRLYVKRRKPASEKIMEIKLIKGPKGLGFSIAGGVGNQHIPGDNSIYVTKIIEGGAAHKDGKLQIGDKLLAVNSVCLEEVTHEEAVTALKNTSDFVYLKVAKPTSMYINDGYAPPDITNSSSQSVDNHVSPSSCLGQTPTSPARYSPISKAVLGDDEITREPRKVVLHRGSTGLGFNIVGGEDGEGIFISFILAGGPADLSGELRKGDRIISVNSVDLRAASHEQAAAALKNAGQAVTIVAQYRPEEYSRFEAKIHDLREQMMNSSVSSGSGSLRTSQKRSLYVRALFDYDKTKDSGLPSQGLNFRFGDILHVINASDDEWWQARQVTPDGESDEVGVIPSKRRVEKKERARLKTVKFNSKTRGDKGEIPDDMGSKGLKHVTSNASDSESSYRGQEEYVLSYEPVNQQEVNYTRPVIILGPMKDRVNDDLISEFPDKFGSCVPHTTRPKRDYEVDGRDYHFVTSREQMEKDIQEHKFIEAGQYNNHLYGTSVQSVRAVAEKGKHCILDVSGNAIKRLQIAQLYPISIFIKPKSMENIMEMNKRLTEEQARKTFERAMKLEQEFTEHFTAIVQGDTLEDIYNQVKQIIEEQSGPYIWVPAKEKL
UniProt P18090: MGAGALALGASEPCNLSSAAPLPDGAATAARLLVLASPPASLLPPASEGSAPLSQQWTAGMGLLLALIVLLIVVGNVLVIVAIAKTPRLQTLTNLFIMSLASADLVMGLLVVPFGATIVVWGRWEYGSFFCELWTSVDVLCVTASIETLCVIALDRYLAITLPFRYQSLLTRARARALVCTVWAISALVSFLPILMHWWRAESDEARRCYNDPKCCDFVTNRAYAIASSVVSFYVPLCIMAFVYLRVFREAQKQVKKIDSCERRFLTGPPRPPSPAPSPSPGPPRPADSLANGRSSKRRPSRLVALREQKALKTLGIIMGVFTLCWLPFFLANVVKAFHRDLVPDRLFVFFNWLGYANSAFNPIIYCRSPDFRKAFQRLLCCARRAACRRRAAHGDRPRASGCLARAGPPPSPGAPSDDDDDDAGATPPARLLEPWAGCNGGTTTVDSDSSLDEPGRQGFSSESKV
UniProt P19490, residues 19-907: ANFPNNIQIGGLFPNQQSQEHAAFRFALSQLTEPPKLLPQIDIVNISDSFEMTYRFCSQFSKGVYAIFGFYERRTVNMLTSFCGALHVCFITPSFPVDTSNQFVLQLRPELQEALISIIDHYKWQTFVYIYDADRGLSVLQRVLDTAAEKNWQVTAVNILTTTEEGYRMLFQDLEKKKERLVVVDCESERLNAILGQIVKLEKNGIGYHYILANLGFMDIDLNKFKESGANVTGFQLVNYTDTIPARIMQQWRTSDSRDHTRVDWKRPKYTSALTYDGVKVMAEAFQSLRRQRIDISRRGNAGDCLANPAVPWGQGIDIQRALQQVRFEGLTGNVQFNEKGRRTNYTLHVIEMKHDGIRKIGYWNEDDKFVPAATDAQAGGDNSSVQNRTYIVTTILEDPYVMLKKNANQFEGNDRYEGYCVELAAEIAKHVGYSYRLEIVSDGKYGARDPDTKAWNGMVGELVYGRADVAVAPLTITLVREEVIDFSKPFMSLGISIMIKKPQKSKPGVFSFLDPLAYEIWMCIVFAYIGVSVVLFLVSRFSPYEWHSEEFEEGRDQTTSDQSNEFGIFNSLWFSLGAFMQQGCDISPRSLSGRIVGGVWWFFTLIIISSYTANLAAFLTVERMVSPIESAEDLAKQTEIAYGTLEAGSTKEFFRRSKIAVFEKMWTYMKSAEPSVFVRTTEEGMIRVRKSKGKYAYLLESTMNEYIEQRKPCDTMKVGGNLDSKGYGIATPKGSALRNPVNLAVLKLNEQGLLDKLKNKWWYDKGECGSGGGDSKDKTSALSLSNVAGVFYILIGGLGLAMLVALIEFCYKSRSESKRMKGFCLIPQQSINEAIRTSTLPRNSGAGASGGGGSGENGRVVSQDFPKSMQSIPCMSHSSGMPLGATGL

How the values were obtained:
[1] = target: full length WT FLAG ß1-AR (human) (UniProt P08588); assay: co-IP; HEK-293 cells stably expressing FLAG ß1-AR and hSAP97 shRNA, transfected with rat SAP97 constructs; RIPA lysates on anti-FLAG M2 resin; blot with anti-SAP97 or anti-pan PDZ antibody
[2] = target: full length WT FLAG ß1-AR (human) (UniProt P08588); assay: co-IP; in vitro interference: extract of cells co-expressing FLAG ß1-AR and SAP97-YFP mixed with 2.5 µg purified GST or 3.2 µg GST-PDZ in 1 ml (0.1 µM); FLAG IP probed with anti-SAP97
[3] = target: full length WT FLAG ß1-AR (human) (UniProt P08588); assay: co-IP; in vivo interference: HEK-293 cells stably expressing FLAG ß1-AR and SAP97-YFP transfected with empty pIRES or an individual SAP97 PDZ in pIRES-EGFP; FLAG IP probed with anti-SAP97 (n = 3)
[4] = target: HA-tagged mouse ß1-AR (mouse) (UniProt P34971); assay: co-IP; mouse neonatal cardiac myocytes infected with adenovirus for HA-tagged ß1-AR; RIPA lysate on anti-HA affinity beads 24 h at 4°C; blots for SAP97, ß1-AR and AKAP150
[5] = target: SAP97 (rat hippocampal membranes) (rat (endogenous in hippocampus)) (UniProt Q62696); assay: co-IP; RIPA lysates of crude rat hippocampal membranes incubated with anti-SAP97 IgG (1:200) or mouse IgG 16 h at 4°C, protein G-agarose; blots for GluR1 and ß1-AR

Row | Substance | binding [1] | binding [5] | further results
1 | full-length rSAP97 in pIRES-EGFP (from UniProt Q62696 1-911) | binds | – | –
2 | K323A/K326A rSAP97-YFP (from UniProt Q62696 1-911) | no binding | – | –
3 | WT rSAP97-YFP (from UniProt Q62696 1-911) | binds | – | binding [2]: binds; binding [3]: binds
4 | SAP97 (mouse cardiac myocytes) (from UniProt Q811D0 1-905) | – | – | binding [4]: binds
5 | ß1-AR (rat hippocampal membranes) (from UniProt P18090 1-466) (receptor) | – | binds | –
6 | GluR1 subunit of AMPA receptors (from UniProt P19490 19-907) | – | binds | –
